Some of these densities may be calculated back from excess volumes.
Experiment: xn = mol fraction of the nth substance listed
Conditions: 101.3 kPa

## CS(C)=O + CCOCC[n+]1ccn(CCC#N)c1.O=S(=O)([N-]S(=O)(=O)C(F)(F)F)C(F)(F)F
293.15 K, x2 = 0
  mass density: 1102.3 kg/m3
303.15 K, x2 = 0
  mass density: 1092.3 kg/m3
313.15 K, x2 = 0
  mass density: 1082.4 kg/m3
323.15 K, x2 = 0
  mass density: 1072.5 kg/m3

## CS(C)=O + COCCOCCn1cc[n+](CCC#N)c1.O=S(=O)([N-]S(=O)(=O)C(F)(F)F)C(F)(F)F
293.15 K, x2 = 0
  mass density: 1102.3 kg/m3
303.15 K, x2 = 0
  mass density: 1092.3 kg/m3
313.15 K, x2 = 0
  mass density: 1082.4 kg/m3
323.15 K, x2 = 0
  mass density: 1072.5 kg/m3

## CCOCC[n+]1ccn(CCC#N)c1.O=S(=O)([N-]S(=O)(=O)C(F)(F)F)C(F)(F)F + CS(C)=O
293.15 K, x1 = 0.0989
  mass density: 1199.8 kg/m3
293.15 K, x1 = 0.1981
  mass density: 1261.8 kg/m3
293.15 K, x1 = 0.2776
  mass density: 1299.3 kg/m3
293.15 K, x1 = 0.3971
  mass density: 1338.7 kg/m3
293.15 K, x1 = 0.5029
  mass density: 1367.5 kg/m3
293.15 K, x1 = 0.721
  mass density: 1414.8 kg/m3
293.15 K, x1 = 1
  mass density: 1463 kg/m3
303.15 K, x1 = 0.0989
  mass density: 1195.9 kg/m3
303.15 K, x1 = 0.1981
  mass density: 1257 kg/m3
303.15 K, x1 = 0.2776
  mass density: 1292.2 kg/m3
303.15 K, x1 = 0.3971
  mass density: 1332.5 kg/m3
303.15 K, x1 = 0.5029
  mass density: 1360.6 kg/m3
303.15 K, x1 = 0.597
  mass density: 1382 kg/m3
303.15 K, x1 = 0.798
  mass density: 1420.7 kg/m3
303.15 K, x1 = 0.89
  mass density: 1436.5 kg/m3
303.15 K, x1 = 1
  mass density: 1454 kg/m3
313.15 K, x1 = 0.0989
  mass density: 1186.8 kg/m3
313.15 K, x1 = 0.1981
  mass density: 1247.9 kg/m3
313.15 K, x1 = 0.2776
  mass density: 1282.9 kg/m3
313.15 K, x1 = 0.3971
  mass density: 1323.1 kg/m3
313.15 K, x1 = 0.5029
  mass density: 1351.2 kg/m3
313.15 K, x1 = 0.597
  mass density: 1372.5 kg/m3
313.15 K, x1 = 0.721
  mass density: 1397 kg/m3
313.15 K, x1 = 0.798
  mass density: 1410.9 kg/m3
313.15 K, x1 = 0.89
  mass density: 1426.7 kg/m3
313.15 K, x1 = 1
  mass density: 1444 kg/m3
323.15 K, x1 = 0.2776
  mass density: 1277.3 kg/m3
323.15 K, x1 = 0.597
  mass density: 1363.9 kg/m3
323.15 K, x1 = 0.798
  mass density: 1402.2 kg/m3
323.15 K, x1 = 0.89
  mass density: 1417.8 kg/m3
323.15 K, x1 = 1
  mass density: 1435 kg/m3

## COCCOCCn1cc[n+](CCC#N)c1.O=S(=O)([N-]S(=O)(=O)C(F)(F)F)C(F)(F)F + CS(C)=O
293.15 K, x1 = 0.0989
  mass density: 1212.2 kg/m3
293.15 K, x1 = 0.2776
  mass density: 1317.1 kg/m3
293.15 K, x1 = 0.3971
  mass density: 1355.7 kg/m3
293.15 K, x1 = 0.5029
  mass density: 1381.3 kg/m3
293.15 K, x1 = 0.597
  mass density: 1399.9 kg/m3
293.15 K, x1 = 0.721
  mass density: 1420.4 kg/m3
293.15 K, x1 = 0.798
  mass density: 1431.4 kg/m3
293.15 K, x1 = 0.89
  mass density: 1443.4 kg/m3
293.15 K, x1 = 1
  mass density: 1456 kg/m3
303.15 K, x1 = 0.0989
  mass density: 1208.3 kg/m3
303.15 K, x1 = 0.1981
  mass density: 1272.8 kg/m3
303.15 K, x1 = 0.3971
  mass density: 1346.9 kg/m3
303.15 K, x1 = 0.597
  mass density: 1390.9 kg/m3
303.15 K, x1 = 0.721
  mass density: 1411.2 kg/m3
303.15 K, x1 = 0.798
  mass density: 1422.3 kg/m3
303.15 K, x1 = 1
  mass density: 1447 kg/m3
313.15 K, x1 = 0.0989
  mass density: 1199.7 kg/m3
313.15 K, x1 = 0.1981
  mass density: 1264.1 kg/m3
313.15 K, x1 = 0.2776
  mass density: 1299 kg/m3
313.15 K, x1 = 0.3971
  mass density: 1338.6 kg/m3
313.15 K, x1 = 0.5029
  mass density: 1364.2 kg/m3
313.15 K, x1 = 0.597
  mass density: 1382.4 kg/m3
313.15 K, x1 = 0.721
  mass density: 1402.6 kg/m3
313.15 K, x1 = 1
  mass density: 1438 kg/m3
323.15 K, x1 = 0.0989
  mass density: 1190.5 kg/m3
323.15 K, x1 = 0.2776
  mass density: 1290.2 kg/m3
323.15 K, x1 = 0.3971
  mass density: 1329.9 kg/m3
323.15 K, x1 = 0.5029
  mass density: 1356 kg/m3
323.15 K, x1 = 0.597
  mass density: 1374.2 kg/m3
323.15 K, x1 = 0.721
  mass density: 1393.9 kg/m3
323.15 K, x1 = 0.89
  mass density: 1416.2 kg/m3
323.15 K, x1 = 1
  mass density: 1428 kg/m3

— a compilation of properties of binary mixtures (doi:10.1016/j.molliq.2020.114841)
